# Data from the supplement of paper PMC4723716.
# ± gives the uncertainty stated by the source. The full ranking holds about 9,900 compounds; the median of “viability index relative to DMSO control” is about 1, and the lowest 2% start at about 0.85. The list shows a part of the results.
# Test system: Plasmodium falciparum NF54 stage V gametocytes
# Test: viability index relative to DMSO control (fraction); higher = less gametocyte killing
# Settings: 2.5 µM, library set: Broad Institute DOS, incubation time: 72 h
# Experimental: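 Broad DOS informer set and blood-stage-active DOS compounds screened in duplicate at 2.5 µM against P. falciparum NF54 stage V gametocytes with the serum-free one-step SaLSSA (1536-well): 72 h at 37 °C under low oxygen, then saponin lysis and MitoTracker Red CMXRos staining, with high-content imaging. Viability index = viable-object count divided by the plate mean of DMSO wells (0 = killed, about 1 = inactive).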
row,Compound,viability index
1,CCCC(=O)Nc1ccc2c(c1)C(=O)N(C)C[C@@H](OC)[C@H](C)CN(Cc1ccc(F)cc1)[C@H](C)CO2,1.01 ± 0.061
2,C/C=C/c1ccccc1[C@H]1[C@@H](C#N)N(C(=O)c2cccnc2)[C@@H]1CO,1.13 ± 0.14
3,C[C@H]1CN([C@@H](C)CO)C(=O)c2cccc(NC(=O)Nc3ccc(F)cc3)c2O[C@@H]1CN(C)S(=O)(=O)c1ccc(Cl)cc1,0.96 ± 0.085
4,Cc1ccccc1S(=O)(=O)N1CC[C@@H]2[C@H](CO)Nc3ccc(-c4ccc(F)cc4)cc3[C@@H]21,1.02 ± 0.079
5,CCCN1C[C@@H](C)[C@@H](OC)CN(C)C(=O)c2cc(NC(=O)Nc3cccc(F)c3)ccc2OC[C@@H]1C,1.01 ± 0.032
6,C[C@H](CO)N1C[C@H](C)[C@H](CN(C)C(=O)CN2CCOCC2)Oc2ncc(-c3ccncc3)cc2C1=O,1.12 ± 0.034
7,CO[C@@H]1CN(C)C(=O)c2ccc(NS(=O)(=O)c3ccc(C)cc3)cc2OC[C@@H](C)N(C)C[C@@H]1C,1.06 ± 0.013
8,CC(C)NC(=O)N(C)C[C@H]1Oc2c(NS(=O)(=O)c3cccs3)cccc2C(=O)N([C@@H](C)CO)C[C@H]1C,1.02 ± 0.06
9,COC(=O)C[C@@H]1CC[C@@H]2[C@@H](COc3ccc(NC(=O)c4ccc(C(F)(F)F)cc4)cc3C(=O)N2C)O1,1.13 ± 0.065
10,COc1ccc2c3c([nH]c2c1)[C@@H](CO)N(C[C@]31CCN(CC1)C(=O)C1CCCCC1)C(=O)NC(C)C,0.935 ± 0.079
11,C[C@H]1CN([C@@H](C)CO)C(=O)c2ccccc2-c2ccccc2CO[C@@H]1CN(C)Cc1cccnc1,1.03 ± 0.073
12,COc1ccc2c3c([C@H](CO)N(C[C@]33CCN(CC3)C(=O)CN(C)C)C(=O)C3CC3)n(C)c2c1,0.9351 ± 0.0013
13,C[C@H]1CN([C@@H](C)CO)C(=O)c2ccccc2-c2ccccc2CO[C@H]1CN(C)Cc1ccc2c(c1)OCCN2C,1 ± 0.1
14,CO[C@@H]1CN(C)C(=O)c2ccc(NC(=O)Nc3ccccc3)cc2OC[C@H](C)N(C(=O)CC2CC2)C[C@@H]1C,1.01 ± 0.042
15,C[C@@H]1CN([C@@H](C)CO)C(=O)c2ccccc2-c2ccccc2CO[C@@H]1CN(C)C(=O)Nc1ccnc(N2CCOCC2)c1,1.056 ± 0.0095
16,C[C@H](CO)N1C[C@H](C)[C@@H](CN(C)Cc2ccccc2C(=O)O)OCc2cnnn2CCCC1=O,0.915 ± 0.013
17,C[C@@H](NC(=O)C[C@@H]1CC[C@@H]2[C@H](COC[C@H](O)CN2C(=O)Nc2cccc(Cl)c2)O1)c1ccccc1,1.1 ± 0.035
18,C[C@H]1CN([C@@H](C)CO)C(=O)c2cccc(NC(=O)Nc3ccc4c(c3)OCO4)c2O[C@@H]1CN(C)S(C)(=O)=O,1.05 ± 0.055
19,C[C@@H]1CN([C@@H](C)CO)S(=O)(=O)c2ccc(-c3ccc(F)cc3)cc2O[C@H]1CN(C)Cc1ccccc1C(=O)O,1.03 ± 0.077
